Assay results: the supplement of paper PMC8728848
The other results are listed elsewhere or left out.

Legend:
Assay in all cases: glycan array binding signal (z-score within array); higher = stronger binding
Details in all cases: glycan notation: IUPAC condensed, linker removed
[1] = target: GlcNAc(b1-3)Gal(b1-4)GlcNAc(b1-3)Gal(b1-4)GlcNAc(b1-3)Gal(b1-4)GlcNAc(b1-3)Gal(b1-4)GlcNAc(b1-2)[GlcNAc(b1-3)Gal(b1-4)GlcNAc(b1-3)Gal(b1-4)GlcNAc(b1-3)Gal(b1-4)GlcNAc(b1-3)Gal(b1-4)GlcNAc(b1-6)]Man(a1-6)[GlcNAc(b1-3)Gal(b1-4)GlcNAc(b1-3)Gal(b1-4)GlcNAc(b1-3)Gal(b1-4)GlcNAc(b1-3)Gal(b1-4)GlcNAc(b1-2)Man(a1-3)]Man(b1-4)GlcNAc(b1-4)[Fuc(a1-6)]GlcNAc
In short: (§1)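 The binding signal is a Z-score computed within each array and averaged over linkers. Arrays of the same protein sequence at different concentrations or buffers were also averaged together. Data originate from 3228 arrays in the Consortium for Functional Glycomics database, kept only where the protein sequence was available.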

[2] = target: GlcNAc(b1-3)Gal(b1-4)GlcNAc(b1-3)Gal(b1-4)GlcNAc(b1-3)GalNAc
In short: as §1

[3] = target: GlcNAc(b1-3)Gal(b1-4)GlcNAc(b1-3)GalNAc
In short: as §1

[4] = target: GlcNAc(b1-3)Gal(b1-4)GlcNAc(b1-3)[GlcNAc(b1-3)Gal(b1-4)GlcNAc(b1-3)]GalNAc
In short: as §1

[5] = target: GlcNAc(b1-3)Gal(b1-4)GlcNAc(b1-6)[Gal(b1-3)]GalNAc
In short: as §1

[6] = target: GlcNAc(b1-3)Gal(b1-4)GlcNAc(b1-6)[GlcNAc(b1-3)Gal(b1-3)]GalNAc
In short: as §1

[7] = target: GlcNAc(b1-3)Gal(b1-4)GlcNAc(b1-6)[GlcNAc(b1-3)]Gal(b1-4)GlcNAc
In short: as §1

GlcNAc(b1-3)GalNAc = target: GlcNAc(b1-3)GalNAc
In short: as §1

GlcNAc(b1-3)Man = target: GlcNAc(b1-3)Man
In short: as §1

[8] = target: GlcNAc(b1-3)[GlcNAc(b1-4)][GlcNAc(b1-6)]GlcNAc
In short: as §1

[9] = target: GlcNAc(b1-3)[GlcNAc(b1-6)]Gal(b1-4)GlcNAc
In short: as §1

[10] = target: GlcNAc(b1-3)[GlcNAc(b1-6)]GalNAc
In short: as §1

[11] = target: GlcNAc(b1-4)Gal(b1-4)GlcNAc
In short: as §1

GlcNAc(b1-4)GlcNAc = target: GlcNAc(b1-4)GlcNAc
In short: as §1

[12] = target: GlcNAc(b1-4)GlcNAc(b1-4)GlcNAc
In short: as §1

[13] = target: GlcNAc(b1-4)GlcNAc(b1-4)GlcNAc(b1-4)GlcNAc(b1-4)GlcNAc
In short: as §1

[14] = target: GlcNAc(b1-4)GlcNAc(b1-4)GlcNAc(b1-4)GlcNAc(b1-4)GlcNAc(b1-4)GlcNAc
In short: as §1

[15] = target: GlcNAc(b1-4)[GlcNAc(b1-6)]GalNAc
In short: as §1

[16] = target: GlcNAc(b1-6)Gal(b1-4)GlcNAc
In short: as §1

GlcNAc(b1-6)GalNAc = target: GlcNAc(b1-6)GalNAc
In short: as §1

[17] = target: GlcNAc6S(b1-3)Gal(b1-4)GlcNAc
In short: as §1

Kdn(a2-3)Gal(b1-3)GalNAc = target: Kdn(a2-3)Gal(b1-3)GalNAc
In short: as §1

Kdn(a2-3)Gal(b1-3)GlcNAc = target: Kdn(a2-3)Gal(b1-3)GlcNAc
In short: as §1

Kdn(a2-3)Gal(b1-4)Glc = target: Kdn(a2-3)Gal(b1-4)Glc
In short: as §1

Kdn(a2-3)Gal(b1-4)GlcNAc = target: Kdn(a2-3)Gal(b1-4)GlcNAc
In short: as §1

[18] = target: Kdn(a2-3)Gal(b1-4)[Fuc(a1-3)]GlcNAc
In short: as §1

Kdn(a2-6)Gal(b1-4)GlcNAc = target: Kdn(a2-6)Gal(b1-4)GlcNAc
In short: as §1

[19] = target: Man(a1-2)Man(a1-2)Man(a1-3)Man
In short: as §1

[20] = target: Man(a1-2)Man(a1-2)Man(a1-6)[Man(a1-3)]Man
In short: as §1

Man(a1-2)Man(a1-3)Man = target: Man(a1-2)Man(a1-3)Man
In short: as §1

[21] = target: Man(a1-2)Man(a1-3)[Man(a1-2)Man(a1-6)]Man
In short: as §1

[22] = target: Man(a1-2)Man(a1-3)[Man(a1-2)Man(a1-6)]Man(a1-6)[Man(a1-2)Man(a1-2)Man(a1-3)]Man
In short: as §1

[23] = target: Man(a1-2)Man(a1-3)[Man(a1-2)Man(a1-6)]Man(a1-6)[Man(a1-2)Man(a1-2)Man(a1-3)]Man(b1-4)GlcNAc(b1-4)GlcNAc
In short: as §1

[24] = target: Man(a1-2)Man(a1-3)[Man(a1-6)]Man(a1-6)[Man(a1-2)Man(a1-3)]Man(b1-4)GlcNAc(b1-4)GlcNAc
In short: as §1

[25] = target: Man(a1-2)Man(a1-6)[Man(a1-3)]Man(a1-6)[Man(a1-2)Man(a1-2)Man(a1-3)]Man
In short: as §1

[26] = target: Man(a1-2)Man(a1-6)[Man(a1-3)]Man(a1-6)[Man(a1-2)Man(a1-2)Man(a1-3)]Man(b1-4)GlcNAc(b1-4)GlcNAc
In short: as §1

Man(a1-3)[Man(a1-6)]Man = target: Man(a1-3)[Man(a1-6)]Man
In short: as §1

[27] = target: Man(a1-3)[Man(a1-6)]Man(a1-6)[Man(a1-2)Man(a1-3)]Man(b1-4)GlcNAc(b1-4)GlcNAc
In short: as §1

[28] = target: Man(a1-3)[Man(a1-6)]Man(a1-6)[Man(a1-3)]Man
In short: as §1

[29] = target: Man(a1-3)[Man(a1-6)]Man(a1-6)[Man(a1-3)]Man(b1-4)GlcNAc(b1-4)GlcNAc
In short: as §1

[30] = target: Man(a1-3)[Man(a1-6)]Man(b1-4)GlcNAc(b1-4)GlcNAc
In short: as §1

[31] = target: Man(a1-3)[Man(a1-6)]Man(b1-4)GlcNAc(b1-4)[Fuc(a1-6)]GlcNAc
In short: as §1

Man(a1-6)Man = target: Man(a1-6)Man
In short: as §1

Man(b1-4)GlcNAc = target: Man(b1-4)GlcNAc
In short: as §1

MurNAc(b1-4)GlcNAc = target: MurNAc(b1-4)GlcNAc
In short: as §1

B1: CML1 (Coprinopsis cinerea) (protein)
chain: MAIFHTGSELFIITRGPGKLTLLTWGGLNNLRSVIGAIPTENTGVTKWAVSFSHNYTRFSFIWEGQGEACYQIGNGLTRSPVGRSWSSSSTIHWGSSTVITEDVTSVVPGAVNRDKVTTAYALPDNL
- glycan array binding signal (z-score) [1]: -0.276
- glycan array binding signal (z-score) [2]: -0.309
- glycan array binding signal (z-score) [3]: -0.328
- glycan array binding signal (z-score) [4]: -0.333
- glycan array binding signal (z-score) [5]: -0.345
- glycan array binding signal (z-score) [6]: -0.326
- glycan array binding signal (z-score) [7]: -0.311
- glycan array binding signal (z-score) (GlcNAc(b1-3)GalNAc): -0.342
- glycan array binding signal (z-score) (GlcNAc(b1-3)Man): -0.329
- glycan array binding signal (z-score) [8]: -0.347
- glycan array binding signal (z-score) [9]: -0.319
- glycan array binding signal (z-score) [10]: -0.329
- glycan array binding signal (z-score) [11]: -0.283
- glycan array binding signal (z-score) (GlcNAc(b1-4)GlcNAc): -0.33
- glycan array binding signal (z-score) [12]: -0.338
- glycan array binding signal (z-score) [13]: -0.345
- glycan array binding signal (z-score) [14]: -0.344
- glycan array binding signal (z-score) [15]: -0.35
- glycan array binding signal (z-score) [16]: -0.336
- glycan array binding signal (z-score) (GlcNAc(b1-6)GalNAc): -0.346
- glycan array binding signal (z-score) [17]: -0.322
- glycan array binding signal (z-score) (Kdn(a2-3)Gal(b1-3)GalNAc): -0.319
- glycan array binding signal (z-score) (Kdn(a2-3)Gal(b1-3)GlcNAc): -0.319
- glycan array binding signal (z-score) (Kdn(a2-3)Gal(b1-4)Glc): -0.356
- glycan array binding signal (z-score) (Kdn(a2-3)Gal(b1-4)GlcNAc): -0.318
- glycan array binding signal (z-score) [18]: 0.875
- glycan array binding signal (z-score) (Kdn(a2-6)Gal(b1-4)GlcNAc): -0.325
- glycan array binding signal (z-score) [19]: -0.36
- glycan array binding signal (z-score) [20]: -0.357
- glycan array binding signal (z-score) (Man(a1-2)Man(a1-3)Man): -0.348
- glycan array binding signal (z-score) [21]: -0.341
- glycan array binding signal (z-score) [22]: -0.35
- glycan array binding signal (z-score) [23]: -0.358
- glycan array binding signal (z-score) [24]: -0.32
- glycan array binding signal (z-score) [25]: -0.341
- glycan array binding signal (z-score) [26]: -0.334
- glycan array binding signal (z-score) (Man(a1-3)[Man(a1-6)]Man): -0.34
- glycan array binding signal (z-score) [27]: -0.342
- glycan array binding signal (z-score) [28]: -0.308
- glycan array binding signal (z-score) [29]: -0.329
- glycan array binding signal (z-score) [30]: -0.349
- glycan array binding signal (z-score) [31]: -0.334
- glycan array binding signal (z-score) (Man(a1-6)Man): -0.336
- glycan array binding signal (z-score) (Man(b1-4)GlcNAc): -0.333
- glycan array binding signal (z-score) (MurNAc(b1-4)GlcNAc): -0.331
